11 molecules from the antibiotic and cytotoxicity screens of Wong et al. (2023) can be followed below.

The structures appear in SMILES notation. The list shows a part of the results.

In this assay the test system is HSkMC (human skeletal muscle cells). The assay can be described thus: cytotoxicity call (relative viability < 0.9). Particulars: 10 µM.
`O=C(N[C@H]1CC[C@H](CCNS(=O)(=O)c2ccc(F)cc2)O[C@@H]1CO)C1CC1`: the cytotoxicity call was “inactive”. The same measure for `Cc1noc(C)c1S(=O)(=O)Nc1ccc2c(c1)CC(=O)N([C@H](C)CO)C[C@H](C)[C@H](CN(C)S(=O)(=O)c1ccc(Cl)cc1)O2`: “inactive”. For `CC(C)c1c(O)ccc2c1CCC1C(C)(C=O)CCCC21C` (stereo unspecified), the cytotoxicity call is “inactive”. On to `CN1C(=O)c2cc(NC(=O)c3cnccn3)ccc2OC[C@H]2O[C@@H](CC(=O)N[C@@H]3CCN(Cc4ccccc4)C3)CC[C@H]21`, for which the cytotoxicity call was “inactive”. As to `O=C(C[C@H]1C=C[C@@H](NS(=O)(=O)c2ccc(F)cc2)[C@@H](CO)O1)N1CCC(Cc2ccccc2)CC1`, the cytotoxicity call was “inactive”. The same measure for `CC(=O)c1ccc2c(c1)N(CCCN(C)C)c1ccccc1S2.O=C(O)C=CC(=O)O`: “inactive”; for `CC(C)NC(=O)Nc1cccc2c1O[C@H](CN(C)Cc1ccc(-c3ccccc3)cc1)[C@@H](C)CN([C@H](C)CO)C2=O`: “inactive”; for `C[C@H]1CN([C@@H](C)CO)C(=O)Cc2cc(NS(=O)(=O)c3ccc(F)cc3)ccc2O[C@@H]1CN(C)S(=O)(=O)c1ccc(F)cc1`: “inactive”. In the case of `NCc1cc(Oc2cccc(C(=O)N3C[C@@H](O)[C@H](F)C3)c2)nc(C(F)(F)F)c1`, the cytotoxicity call is “inactive”.

For `C[C@@H]1CCCCO[C@H](CN(C)C(=O)Nc2ccc(C(F)(F)F)cc2)[C@@H](C)CN([C@@H](C)CO)C(=O)c2cc(NC(=O)C3CCCCC3)ccc2O1`, the cytotoxicity call was “inactive”. For `C[C@@H]1CCCCO[C@H](CN(C)S(=O)(=O)c2ccc(Cl)cc2)[C@H](C)CN([C@@H](C)CO)C(=O)c2cc(NC(=O)Nc3ccc(C(F)(F)F)cc3)ccc2O1` the value was “inactive”.
